Experimental data taken from the supplement of paper PMC9588766.
Structures can show the parent of a compound that is named as a salt. The full ranking holds about 1,900 compounds; the median of “cell viability of compound + 1 nM pemigatinib relative to pemigatinib-only (DMSO) wells” is about 0.95, and the lowest 2% start at about 0.22. The list shows a part of the results.

Each molecule was assayed on PDC-DUC18828 (assay: cell viability of compound + 1 nM pemigatinib relative to pemigatinib-only (DMSO) wells (fraction); PDC-DUC18828 is a patient-derived cholangiocarcinoma cell line; higher = less growth inhibition). Settings: first compound 1 µM; pemigatinib concentration 1 nM; 72 h.
Protocol: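 Selleck Bioactive library screen in the patient-derived FGFR2 fusion-positive ICC cell line PDC-DUC18828 (500 cells/well). Each compound was tested at 1 uM with 1 nM pemigatinib, in triplicate, for 72 h. Viability was read by CellTiter-Glo and normalised to plate DMSO controls. Value is the paper's averaged normalised viability.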
`Nc1cccc2c1C(=O)N(C1CCC(=O)NC1=O)C2=O` (stereo not given) [Pomalidomide] + CCN1C(=O)N(c2c(F)c(OC)cc(OC)c2F)Cc2cnc3[nH]c(CN4CCOCC4)cc3c21 [pemigatinib] showed a cell viability of 1.04.
With `O=C1Nc2ccccc2/C1=C1/Nc2ccccc2C1=O` [Indirubin] + CCN1C(=O)N(c2c(F)c(OC)cc(OC)c2F)Cc2cnc3[nH]c(CN4CCOCC4)cc3c21 [pemigatinib] the cell viability was 0.939.
With `O=C(O)C(O)Cc1ccc(O)c(O)c1` (stereo not given) [Sodium Danshensu] + CCN1C(=O)N(c2c(F)c(OC)cc(OC)c2F)Cc2cnc3[nH]c(CN4CCOCC4)cc3c21 [pemigatinib] the cell viability was 0.951.
`COc1cc(C(=O)O)ccc1NC(=O)[C@@H]1N[C@@H](CC(C)(C)C)[C@](C#N)(c2ccc(Cl)cc2F)[C@H]1c1cccc(Cl)c1F` [Idasanutlin (RG-7388)] + CCN1C(=O)N(c2c(F)c(OC)cc(OC)c2F)Cc2cnc3[nH]c(CN4CCOCC4)cc3c21 [pemigatinib] was tested, and the cell viability was 0.942.
`N[C@@H](Cc1cc(I)c(Oc2cc(I)c(O)c(I)c2)c(I)c1)C(=O)O` [L-Thyroxine] + CCN1C(=O)N(c2c(F)c(OC)cc(OC)c2F)Cc2cnc3[nH]c(CN4CCOCC4)cc3c21 [pemigatinib] was tested, and the cell viability was 1.02.
Molecule `CC1(C)CCC(C)(C)c2cc(NC(=O)c3ccc(C(=O)O)cc3)ccc21` [Tamibarotene] + CCN1C(=O)N(c2c(F)c(OC)cc(OC)c2F)Cc2cnc3[nH]c(CN4CCOCC4)cc3c21 [pemigatinib] has a cell viability of 0.903.
In the case of `CN(C)CC/C=C1/c2ccccc2Sc2ccc(Cl)cc21` [Chlorprothixene] + CCN1C(=O)N(c2c(F)c(OC)cc(OC)c2F)Cc2cnc3[nH]c(CN4CCOCC4)cc3c21 [pemigatinib], the cell viability is reported as 0.93.
`Cn1cc(CNCC2CCN(c3ncc(C(=O)NO)cn3)CC2)c2ccccc21` + CCN1C(=O)N(c2c(F)c(OC)cc(OC)c2F)Cc2cnc3[nH]c(CN4CCOCC4)cc3c21 [pemigatinib] showed a cell viability of 0.0657.
`CC(=O)[C@H]1CC[C@H]2[C@@H]3CCC4=CC(=O)CC[C@]4(C)[C@H]3CC[C@]12C` [Progesterone] + CCN1C(=O)N(c2c(F)c(OC)cc(OC)c2F)Cc2cnc3[nH]c(CN4CCOCC4)cc3c21 [pemigatinib] was tested, and the cell viability was 0.926.
`CN(C)CCOC(c1ccccc1)c1ccccc1` [Diphenhydramine HCl] + CCN1C(=O)N(c2c(F)c(OC)cc(OC)c2F)Cc2cnc3[nH]c(CN4CCOCC4)cc3c21 [pemigatinib] showed a cell viability of 1.03.
For `COc1ccc2[nH]c([S+]([O-])Cc3ncc(C)c(OC)c3C)nc2n1` (stereo not given) [Tenatoprazole] + CCN1C(=O)N(c2c(F)c(OC)cc(OC)c2F)Cc2cnc3[nH]c(CN4CCOCC4)cc3c21 [pemigatinib], the cell viability was 0.966.
`CCOC(=O)CCNc1cc(N2CCc3ccccc3CC2)nc(-c2ccccn2)n1` + CCN1C(=O)N(c2c(F)c(OC)cc(OC)c2F)Cc2cnc3[nH]c(CN4CCOCC4)cc3c21 [pemigatinib] was tested, and the cell viability was 0.822.
In the case of `CCNC(=O)c1[nH]nc(-c2cc(Cl)c(O)cc2O)c1-c1ccc(OC)cc1` + CCN1C(=O)N(c2c(F)c(OC)cc(OC)c2F)Cc2cnc3[nH]c(CN4CCOCC4)cc3c21 [pemigatinib], the cell viability is reported as 0.701.
With `C[C@H](NC(=O)/C(C#N)=C/c1cccc(Br)n1)c1ccccc1` + CCN1C(=O)N(c2c(F)c(OC)cc(OC)c2F)Cc2cnc3[nH]c(CN4CCOCC4)cc3c21 [pemigatinib] the cell viability was 0.934.
`CC(C)c1ccc(NC(=O)Cn2cnc3c2c(=O)n(C)c(=O)n3C)cc1` + CCN1C(=O)N(c2c(F)c(OC)cc(OC)c2F)Cc2cnc3[nH]c(CN4CCOCC4)cc3c21 [pemigatinib] showed a cell viability of 0.863.
`CCNC(=O)Nc1ccc(-c2nc3c(c(N4CCOC[C@@H]4C)n2)CCN(C2COC2)C3)cc1` + CCN1C(=O)N(c2c(F)c(OC)cc(OC)c2F)Cc2cnc3[nH]c(CN4CCOCC4)cc3c21 [pemigatinib] showed a cell viability of 0.446.
`CCCN(CCC)S(=O)(=O)c1ccc(C(=O)O)cc1` [Probenecid] + CCN1C(=O)N(c2c(F)c(OC)cc(OC)c2F)Cc2cnc3[nH]c(CN4CCOCC4)cc3c21 [pemigatinib] gave a cell viability of 1.02.
`C[C@]12CC[C@@H]3c4ccc(O)cc4CC[C@H]3[C@@H]1CC[C@@H]2O` [Estradiol] + CCN1C(=O)N(c2c(F)c(OC)cc(OC)c2F)Cc2cnc3[nH]c(CN4CCOCC4)cc3c21 [pemigatinib] gave a cell viability of 0.944.
In the case of `Cc1ncc(CO)c(CO)c1O` [Pyridoxine HCl] + CCN1C(=O)N(c2c(F)c(OC)cc(OC)c2F)Cc2cnc3[nH]c(CN4CCOCC4)cc3c21 [pemigatinib], the cell viability is reported as 0.895.
Molecule `O=C(O)c1ccc(-c2c[nH]c3ncc(-c4ccccc4)cc23)cc1C1CCCC1` + CCN1C(=O)N(c2c(F)c(OC)cc(OC)c2F)Cc2cnc3[nH]c(CN4CCOCC4)cc3c21 [pemigatinib] has a cell viability of 0.904.
For `CC1(C)[C@H](C(=O)O)N2C(=O)C[C@H]2S1(=O)=O` [Sulbactam] + CCN1C(=O)N(c2c(F)c(OC)cc(OC)c2F)Cc2cnc3[nH]c(CN4CCOCC4)cc3c21 [pemigatinib], the cell viability was 0.953.
`CC1(C)[C@H](C(=O)O)N2C(=O)C[C@H]2S1(=O)=O` [Sulbactam sodium] + CCN1C(=O)N(c2c(F)c(OC)cc(OC)c2F)Cc2cnc3[nH]c(CN4CCOCC4)cc3c21 [pemigatinib] gave a cell viability of 0.932.
In the case of `C=CC(=O)Nc1cc(Nc2nccc(-c3cn(C)c4ccccc34)n2)c(OC)cc1N(C)CCN(C)C` + CCN1C(=O)N(c2c(F)c(OC)cc(OC)c2F)Cc2cnc3[nH]c(CN4CCOCC4)cc3c21 [pemigatinib], the cell viability is reported as 0.859.
`C#Cc1cccc(Nc2ncnc3cc4c(cc23)OCCOCCOCCO4)c1` [Icotinib] + CCN1C(=O)N(c2c(F)c(OC)cc(OC)c2F)Cc2cnc3[nH]c(CN4CCOCC4)cc3c21 [pemigatinib] showed a cell viability of 0.801.
Molecule `Cc1ccc(NCCCc2ccccc2)c(N)c1` + CCN1C(=O)N(c2c(F)c(OC)cc(OC)c2F)Cc2cnc3[nH]c(CN4CCOCC4)cc3c21 [pemigatinib] has a cell viability of 1.04.
`C=CC(=O)Nc1cc(Nc2nccc(-c3c[nH]c4ccccc34)n2)c(OC)cc1N(C)CCN(C)C` + CCN1C(=O)N(c2c(F)c(OC)cc(OC)c2F)Cc2cnc3[nH]c(CN4CCOCC4)cc3c21 [pemigatinib] gave a cell viability of 0.776.
Work on `CC1=C(/C=C/C(C)=C/C=C/C(C)=C/C(=O)O)C(C)(C)CCC1` [Tretinoin] + CCN1C(=O)N(c2c(F)c(OC)cc(OC)c2F)Cc2cnc3[nH]c(CN4CCOCC4)cc3c21 [pemigatinib] yielded a cell viability of 0.86.
For `C[C@]12CC[C@H](O)CC1=CC[C@@H]1[C@@H]2CC[C@]2(C)C(n3cnc4ccccc43)=CC[C@@H]12` [Galeterone] + CCN1C(=O)N(c2c(F)c(OC)cc(OC)c2F)Cc2cnc3[nH]c(CN4CCOCC4)cc3c21 [pemigatinib], the cell viability was 0.923.
For `N=C(N)NS(=O)(=O)c1ccc(N)cc1` [Sulfaguanidine] + CCN1C(=O)N(c2c(F)c(OC)cc(OC)c2F)Cc2cnc3[nH]c(CN4CCOCC4)cc3c21 [pemigatinib], the cell viability was 1.02.
For `O=C(Nc1nc2cccc(-c3ccc(CN4CCS(=O)(=O)CC4)cc3)n2n1)C1CC1` [Filgotinib (GLPG0634)] + CCN1C(=O)N(c2c(F)c(OC)cc(OC)c2F)Cc2cnc3[nH]c(CN4CCOCC4)cc3c21 [pemigatinib], the cell viability was 0.911.
With `COc1ccc2ccc(=O)oc2c1CC=C(C)C` [Osthole] + CCN1C(=O)N(c2c(F)c(OC)cc(OC)c2F)Cc2cnc3[nH]c(CN4CCOCC4)cc3c21 [pemigatinib] the cell viability was 0.951.
Work on `CNS(=O)(=O)CCc1ccc2[nH]cc(C3CCN(C)CC3)c2c1` [Naratriptan] + CCN1C(=O)N(c2c(F)c(OC)cc(OC)c2F)Cc2cnc3[nH]c(CN4CCOCC4)cc3c21 [pemigatinib] yielded a cell viability of 1.03.
Work on `CC(=O)Oc1ccccc1C(=O)O` [Aspirin] + CCN1C(=O)N(c2c(F)c(OC)cc(OC)c2F)Cc2cnc3[nH]c(CN4CCOCC4)cc3c21 [pemigatinib] yielded a cell viability of 0.856.
For `N#CSc1cc(SC#N)c(N)nc1N` + CCN1C(=O)N(c2c(F)c(OC)cc(OC)c2F)Cc2cnc3[nH]c(CN4CCOCC4)cc3c21 [pemigatinib], the cell viability was 0.965.
`CCCCc1nc2cc(/C=C/C(=O)NO)ccc2n1CCN(CC)CC` [Pracinostat (SB939)] + CCN1C(=O)N(c2c(F)c(OC)cc(OC)c2F)Cc2cnc3[nH]c(CN4CCOCC4)cc3c21 [pemigatinib] was tested, and the cell viability was 0.463.
Work on `O=C(O)/C=C/c1ccc(O)c(O)c1` [Caffeic Acid] + CCN1C(=O)N(c2c(F)c(OC)cc(OC)c2F)Cc2cnc3[nH]c(CN4CCOCC4)cc3c21 [pemigatinib] yielded a cell viability of 0.932.
`CC1(C)CC(=O)c2c(C(F)(F)F)nn(-c3ccc(C(N)=O)c(N[C@H]4CC[C@H](O)CC4)c3)c2C1` + CCN1C(=O)N(c2c(F)c(OC)cc(OC)c2F)Cc2cnc3[nH]c(CN4CCOCC4)cc3c21 [pemigatinib] was tested, and the cell viability was 0.295.
In the case of `COc1cc2nc(N(C)CCCNC(=O)C3CCCO3)nc(N)c2cc1OC` (stereo not given) [Alfuzosin HCl] + CCN1C(=O)N(c2c(F)c(OC)cc(OC)c2F)Cc2cnc3[nH]c(CN4CCOCC4)cc3c21 [pemigatinib], the cell viability is reported as 0.928.
With `O=C(NO)c1cccc(C(=O)NCCc2ccccc2)c1` + CCN1C(=O)N(c2c(F)c(OC)cc(OC)c2F)Cc2cnc3[nH]c(CN4CCOCC4)cc3c21 [pemigatinib] the cell viability was 0.859.
`N=C(N)Nc1ccc(C(=O)Oc2ccc3cc(C(=N)N)ccc3c2)cc1` [Nafamostat Mesylate] + CCN1C(=O)N(c2c(F)c(OC)cc(OC)c2F)Cc2cnc3[nH]c(CN4CCOCC4)cc3c21 [pemigatinib] was tested, and the cell viability was 1.01.
